Assay results: the supplement of paper PMC10338343
± gives the standard deviation. Whole data set: some 6,600 sequences, median “pre-steady-state target cleavage rate” near 0.07, cut for the highest 2% near 0.72. The list shows a part of the results, in another mix than the full data.

tested on: MIWI (PIWIL1) piRISC loaded with Kctd7 piRNA (30 nt); test: pre-steady-state target cleavage rate (min^-1); MIWI and MILI are mouse PIWI proteins and EfPiwi is from a freshwater sponge; tags in brackets are library labels; higher = faster piRNA-guided slicing of the target; details: guide: Kctd7 piRNA 5'p-UGUUAAUCUCUCAGAGAAGGUGACAGUGAU; auxiliary factor: 500 nM mouse GTSF1
In short: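 The pre-steady-state cleavage rate was obtained by Cleave-'n-Seq with a burst-and-steady-state fit. A transcribed, DNA-blocked target RNA library (0.1 nM) was mixed with 1 nM active affinity-purified piRISC carrying one synthetic guide, with or without 500 nM GTSF1 partner protein, in HEPES–potassium acetate buffer at 33 °C for 0–8 or 0–960 min. Uncleaved targets were sequenced and normalised to depth and to weakly complementary targets, with three trials pooled and k3 capped at 0.0001 min^-1.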

Sequence | pre-steady-state target cleavage rate
UAGUGUGUCACCAUCUCUGAGAGAUUUUGA | 0.0159 ± 0.0065
UACAGACUCACCUUCUCUGAGAGAUUUUGA | 0.0319 ± 0.0062
AUCACUGUCACCUUCUCUGAAGAGAUUAACA | 0.0111 ± 0.0049
UAGUGACACACCUUCUGUGUGAGAUUAACA | 0.0354 ± 0.0074
UAGUGACACACCUUCUCUGAGAGAUUAAA | 0.23 ± 0.052
UUCACUGUCACCUUCUCUGAGACAUAUUGA | 0.00421 ± 0.0037
AUCACAGUCACCUUCUCUGAGAGAUUAUGA | 0.0483 ± 0.014
UACACAGUCACCUUCUCUGAGAGAUAAACA | 0.38 ± 0.046
UACACUGUCACCUUCUCUGAGUGAUAAACA | 0.0211 ± 0.0066
UACUGAGUCACCUUCUCUGAGAGAUUUUGA | 0.0745 ± 0.015
UAGUGAGUCACCUUCUCUGCGAGAUUAACA | 0.319 ± 0.028
AUCACUCACACCUUCUCUGAGAGAUUUUGA | 0.113 ± 0.032
UAGAGUGUCACCUUCUCUGUGAGAUUAACA | 0.299 ± 0.013
UACACUGUCUGGUUCUCUGAGAGAUUAAGA | 0.0195 ± 0.0043
UAGUGACAGUCCUUCUCUAAGAGAUUAACA | 0.0145 ± 0.0044
UACACUGUGACCUUCUCUGAGAGUUUAACA | 0.298 ± 0.054
UUCACUGUCACCUUCUCUGUGAGAUUUUGA | 0.044 ± 0.013
UAGACUGUCAGCUUCUGUGAGAGAUUAACA | 0.415 ± 0.023
UACACAGUCACCUUCUCUGUGAGAUUAACA | 0.175 ± 0.021
AUCACUGACAGCUUCUCUGAGAGAUUAACA | 0.619 ± 0.035
UAGUGACUCACCAUCUCUGAGAGAUUAUGA | 0.00377 ± 0.0024
UAGUGUGUCACCCUUCUCUGAGAGAUUAACA | 0.304 ± 0.03
AUCACUGUCAGCUUCUCUGAGAGAUUUUGA | 0.0122 ± 0.005

Sequence | pre-steady-state target cleavage rate
AUCACUGUCACCUUCUCUGUCUGAUUAAGA | 0.0198 ± 0.0086
UAGUCUGUCACCUUCUCAGAGAGAUUUACA | 0.22 ± 0.026
UAGUGAGUCACCUUCUGUGAGAGAUAAACA | 0.141 ± 0.019
UUCACUGUCACCUUCUCUGGAGAUUAACA | 0.176 ± 0.016
UAGACUGUCACCUUCUCUGAGAGAUUAUGA | 0.106 ± 0.018
AUCACUGUCACGUUCUCUGACAGAUUAACA | 0.0497 ± 0.0083
UUCACUCUCACCUUCACUGAGAGAUUAACA | 0.341 ± 0.019
AUCACUGUCACCUUCUCUGAGACAUUAUGA | 0.00926 ± 0.0033
UAGACUGUCACGUUCUCAGAGAGAUUAACA | 0.135 ± 0.0098
UAGUGAGUCACCUUCUCUCAGAGAAUAACA | 0.0248 ± 0.0065
UAGUGACACACCUUCUCUGAGAGAUCUAACA | 0.162 ± 0.038
UUCACUGUUACCUUCUCUGAGAGAUUAACA | 0.342 ± 0.032
UAGUGAGUCACCUUCUCUGAGAGAAAAACA | 0.151 ± 0.026
UAGUGUCUCACCAUCUCUGAGAGAUUAACA | 0.553 ± 0.035
UACACUGUCACCUUGUCUGAGAGAUAUUGA | 0.118 ± 0.031
UAGUGAGUCACCUACUCUGAGAGAUAUUGA | 0.00386 ± 0.0037
AUCACUGUCAGCUUCUCUGAGAGAUAAACA | 0.28 ± 0.03
UUCUCUGUCACCUUCUCUGAGAGAUUAAGA | 0.107 ± 0.021
AUCACUGUCACCUUCAGUGAGAGAUUAACA | 0.0907 ± 0.016
AUCACUCUCACCUUCUCUGAGAGUUUAACA | 0.156 ± 0.022
UACACUGUCACCUUCUCUGAGAGAAAAACA | 0.262 ± 0.052
UUCACUGUCACGUUCUCUGAGAGAUUAACA | 0.681 ± 0.035
UAGACUGACACCAUCUCUGAGAGAUUAACA | 0.511 ± 0.043
